{"source": "the supplement of paper PMC8728848", "experiment_in_all_cases": "glycan array binding signal (z-score within array); higher = stronger binding", "settings_in_all_cases": "glycan notation: IUPAC condensed, linker removed", "key": {"Fuc(a1-2)Gal": {"biological_target": "Fuc(a1-2)Gal", "in_short": "(§1)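 The Consortium for Functional Glycomics database supplied 3228 glycan arrays, of which those lacking an available protein sequence were dropped. The binding signal, a within-array Z-score, was averaged across arrays of the same protein sequence and across linkers. Negative scores can be read as non-binding.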"}, "Fuc(a1-2)Gal(b1-3)GalNAc": {"biological_target": "Fuc(a1-2)Gal(b1-3)GalNAc", "in_short": "as §1"}, "[1]": {"biological_target": "Fuc(a1-2)Gal(b1-3)GalNAc(a1-3)[Fuc(a1-2)]Gal(b1-4)Glc", "in_short": "as §1"}, "[2]": {"biological_target": "Fuc(a1-2)Gal(b1-3)GalNAc(a1-3)[Fuc(a1-2)]Gal(b1-4)GlcNAc", "in_short": "as §1"}, "[3]": {"biological_target": "Fuc(a1-2)Gal(b1-3)GalNAc(b1-3)Gal", "in_short": "as §1"}, "[4]": {"biological_target": "Fuc(a1-2)Gal(b1-3)GalNAc(b1-3)Gal(a1-4)Gal(b1-4)Glc", "in_short": "as §1"}, "[5]": {"biological_target": "Fuc(a1-2)Gal(b1-3)GalNAc(b1-4)[Neu5Ac(a2-3)]Gal(b1-4)Glc", "in_short": "as §1"}, "Fuc(a1-2)Gal(b1-3)GlcNAc": {"biological_target": "Fuc(a1-2)Gal(b1-3)GlcNAc", "in_short": "as §1"}, "[6]": {"biological_target": "Fuc(a1-2)Gal(b1-3)GlcNAc(b1-2)Man(a1-3)[Fuc(a1-2)Gal(b1-3)GlcNAc(b1-2)Man(a1-6)]Man(b1-4)GlcNAc(b1-4)GlcNAc", "in_short": "as §1"}, "[7]": {"biological_target": "Fuc(a1-2)Gal(b1-3)GlcNAc(b1-2)Man(a1-3)[Fuc(a1-2)Gal(b1-3)GlcNAc(b1-2)Man(a1-6)]Man(b1-4)GlcNAc(b1-4)[Fuc(a1-6)]GlcNAc", "in_short": "as §1"}, "[8]": {"biological_target": "Fuc(a1-2)Gal(b1-3)GlcNAc(b1-3)Gal(b1-4)Glc", "in_short": "as §1"}, "[9]": {"biological_target": "Fuc(a1-2)Gal(b1-3)GlcNAc(b1-3)GalNAc", "in_short": "as §1"}, "[10]": {"biological_target": "Fuc(a1-2)Gal(b1-3)GlcNAc(b1-3)[Fuc(a1-2)Gal(b1-3)GlcNAc(b1-6)]GalNAc", "in_short": "as §1"}, "[11]": {"biological_target": "Fuc(a1-2)Gal(b1-3)GlcNAc(b1-3)[Gal(b1-4)GlcNAc(b1-6)]Gal(b1-4)Glc", "in_short": "as §1"}, "[12]": {"biological_target": "Fuc(a1-2)Gal(b1-3)GlcNAc(b1-3)[Neu5Ac(a2-6)Gal(b1-4)GlcNAc(b1-6)]Gal(b1-4)Glc", "in_short": "as §1"}, "[13]": {"biological_target": "Fuc(a1-2)Gal(b1-3)GlcNAc6S", "in_short": "as §1"}, "[14]": {"biological_target": "Fuc(a1-2)Gal(b1-3)[Fuc(a1-4)]GlcNAc", "in_short": "as §1"}, "[15]": {"biological_target": "Fuc(a1-2)Gal(b1-3)[Fuc(a1-4)]GlcNAc(b1-2)Man(a1-3)[Fuc(a1-2)Gal(b1-3)[Fuc(a1-4)]GlcNAc(b1-2)Man(a1-3)]Man(b1-4)GlcNAc(b1-4)GlcNAc", "in_short": "as §1"}, "[16]": {"biological_target": "Fuc(a1-2)Gal(b1-3)[Fuc(a1-4)]GlcNAc(b1-2)Man(a1-3)[Fuc(a1-2)Gal(b1-3)[Fuc(a1-4)]GlcNAc(b1-2)Man(a1-6)]Man(b1-4)GlcNAc(b1-4)[Fuc(a1-6)]GlcNAc(b1-4)[Fuc(a1-6)]GlcNAc", "in_short": "as §1"}, "[17]": {"biological_target": "Fuc(a1-2)Gal(b1-3)[Fuc(a1-4)]GlcNAc(b1-3)[Fuc(a1-3)[Gal(b1-4)]GlcNAc(b1-6)]Gal(b1-4)Glc", "in_short": "as §1"}, "[18]": {"biological_target": "Fuc(a1-2)Gal(b1-3)[Fuc(a1-4)]GlcNAc(b1-3)[Gal(b1-4)GlcNAc(b1-6)]Gal(b1-4)Glc", "in_short": "as §1"}, "[19]": {"biological_target": "Fuc(a1-2)Gal(b1-4)Fuc(a1-3)]GlcNAc(b1-2)Man(a1-3)[Fuc(a1-2)Gal(b1-4)[Fuc(a1-3)]GlcNAc(b1-2)Man(a1-6)]Man(b1-4)GlcNAc(b1-4)GlcNAc", "in_short": "as §1"}, "Fuc(a1-2)Gal(b1-4)Glc": {"biological_target": "Fuc(a1-2)Gal(b1-4)Glc", "in_short": "as §1"}, "Fuc(a1-2)Gal(b1-4)Glc6S": {"biological_target": "Fuc(a1-2)Gal(b1-4)Glc6S", "in_short": "as §1"}, "Fuc(a1-2)Gal(b1-4)GlcNAc": {"biological_target": "Fuc(a1-2)Gal(b1-4)GlcNAc", "in_short": "as §1"}, "[20]": {"biological_target": "Fuc(a1-2)Gal(b1-4)GlcNAc(b1-2)Man", "in_short": "as §1"}, "[21]": {"biological_target": "Fuc(a1-2)Gal(b1-4)GlcNAc(b1-2)Man(a1-3)[Fuc(a1-2)Gal(b1-4)GlcNAc(b1-2)Man(a1-6)]Man(b1-4)GlcNAc(b1-4)GlcNAc", "in_short": "as §1"}, "[22]": {"biological_target": "Fuc(a1-2)Gal(b1-4)GlcNAc(b1-2)Man(a1-3)[Fuc(a1-2)Gal(b1-4)GlcNAc(b1-2)Man(a1-6)]Man(b1-4)GlcNAc(b1-4)[Fuc(a1-6)]GlcNAc", "in_short": "as §1"}, "[23]": {"biological_target": "Fuc(a1-2)Gal(b1-4)GlcNAc(b1-2)[Fuc(a1-2)Gal(b1-4)GlcNAc(b1-4)]Man(a1-3)[Fuc(a1-2)Gal(b1-4)GlcNAc(b1-2)Man(a1-6)]Man(b1-4)GlcNAc(b1-4)GlcNAc", "in_short": "as §1"}, "[24]": {"biological_target": "Fuc(a1-2)Gal(b1-4)GlcNAc(b1-3)Gal(b1-4)GlcNAc", "in_short": "as §1"}}, "note": "The list shows a part of the results."}
{"binder": "UDA (Urtica dioica), P11218 (protein) MMMRFLSAVVIMSSAMAVGLVSAQRCGSQGGGGTCPALWCCSIWGWCGDSEPYCGRTCENKCWSGERSDHRCGAAVGNPPCGQDRCCSVHGWCGGGNDYCSGSKCQYRCSSSVRGPRVALSGNSTANSIGNVVVTEPLFDQMFSHRKDCPSQGFYSYHSFLVAAESFPAFGTIGDVATRKREVAAFLAHISQATSGERSDVENPHAWGLCHINTTTVTENDFCTSSDWPCAAGKKYSPRGPIQLTHNFNYGLAGQAIGEDLIQNPDLVEKDPIISFKTALWFWMSQHDNKPSCHDIVLNANSAANRIPNKGVIGNIISRAFGHDDFAVRSSSIGFYKRYCDMLGVSYGHDLKYWFDNTPSSEFQRIQMRVAA", "values": [{"measurement": "glycan array binding signal (z-score)", "setting": "Fuc(a1-2)Gal", "value": -0.188}, {"measurement": "glycan array binding signal (z-score)", "setting": "Fuc(a1-2)Gal(b1-3)GalNAc", "value": -0.181}, {"measurement": "glycan array binding signal (z-score)", "setting": "[1]", "value": -0.174}, {"measurement": "glycan array binding signal (z-score)", "setting": "[2]", "value": -0.177}, {"measurement": "glycan array binding signal (z-score)", "setting": "[3]", "value": -0.215}, {"measurement": "glycan array binding signal (z-score)", "setting": "[4]", "value": -0.215}, {"measurement": "glycan array binding signal (z-score)", "setting": "[5]", "value": -0.208}, {"measurement": "glycan array binding signal (z-score)", "setting": "Fuc(a1-2)Gal(b1-3)GlcNAc", "value": -0.188}, {"measurement": "glycan array binding signal (z-score)", "setting": "[6]", "value": -0.13}, {"measurement": "glycan array binding signal (z-score)", "setting": "[7]", "value": -0.17}, {"measurement": "glycan array binding signal (z-score)", "setting": "[8]", "value": -0.175}, {"measurement": "glycan array binding signal (z-score)", "setting": "[9]", "value": -0.179}, {"measurement": "glycan array binding signal (z-score)", "setting": "[10]", "value": -0.168}, {"measurement": "glycan array binding signal (z-score)", "setting": "[11]", "value": -0.109}, {"measurement": "glycan array binding signal (z-score)", "setting": "[12]", "value": -0.169}, {"measurement": "glycan array binding signal (z-score)", "setting": "[13]", "value": -0.182}, {"measurement": "glycan array binding signal (z-score)", "setting": "[14]", "value": -0.185}, {"measurement": "glycan array binding signal (z-score)", "setting": "[15]", "value": -0.156}, {"measurement": "glycan array binding signal (z-score)", "setting": "[16]", "value": -0.171}, {"measurement": "glycan array binding signal (z-score)", "setting": "[17]", "value": -0.173}, {"measurement": "glycan array binding signal (z-score)", "setting": "[18]", "value": -0.071}, {"measurement": "glycan array binding signal (z-score)", "setting": "[19]", "value": -0.138}, {"measurement": "glycan array binding signal (z-score)", "setting": "Fuc(a1-2)Gal(b1-4)Glc", "value": -0.187}, {"measurement": "glycan array binding signal (z-score)", "setting": "Fuc(a1-2)Gal(b1-4)Glc6S", "value": -0.172}, {"measurement": "glycan array binding signal (z-score)", "setting": "Fuc(a1-2)Gal(b1-4)GlcNAc", "value": -0.177}, {"measurement": "glycan array binding signal (z-score)", "setting": "[20]", "value": -0.18}, {"measurement": "glycan array binding signal (z-score)", "setting": "[21]", "value": -0.151}, {"measurement": "glycan array binding signal (z-score)", "setting": "[22]", "value": -0.157}, {"measurement": "glycan array binding signal (z-score)", "setting": "[23]", "value": -0.161}, {"measurement": "glycan array binding signal (z-score)", "setting": "[24]", "value": -0.076}]}
